# According to PubChem BioAssay AID1347071 (National Center for Advancing Translational Sciences (NCATS), 2019):
# About 260 (0.063%) of roughly 410,000 compounds were called active. Inconclusive results, whose numbers are uncertain, are shown with a selection of clear calls. Calls come from the whole dose curve; as a rule, active = well fitted activation curve with a large enough effect; inconclusive = small, poorly fitted or top-dose-only effect; inactive = no such curve, though single readings can be large or run the other way. No potency is given beside an inconclusive call; the fits are too rough.
# Experiment: qHTS for compounds that reverse cellular toxicity of Amyloid beta (A-beta) peptide in yeast: Primary Screen; note: nearly all actives have a fitted effect of over 55% in size
# Details: yeast expressing A-beta42, growth rescue, OD600, 48 h; growth rescue: at 46.1 µM (top of the series), 0% DMSO, 100% iron-clioquinol control
# How it was run: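 Yeast A-beta toxicity model in growth medium with pinned compounds, 48 h at 30 C; growth read as absorbance at 600 nm. Normalized to FeCl3/clioquinol equimolar mix (positive) and DMSO (negative).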
# Potency is the fitted concentration of half-maximal effect; tags give direction and shape of the fitted curve.
SMILES,Potency,growth rescue
Clc1cccc(CNc2ccn3nc(-c4ccccc4)cc3n2)c1,"inconclusive [activator, single point]",
O=C(Nc1ccccc1)c1cc(C2CCCCN2C(=O)CCCc2ccccc2)on1 (stereo not drawn),,inactive: -17.3%
COc1cccc(N2CCN(CC(=O)Nc3nnc(-c4ccccc4)s3)CC2)c1,"inconclusive [activator, single point]",
O=C(Cc1ccccc1)NC(=S)Nc1ccc(OC(F)F)cc1,active: 11.2 µM,
COc1cc(-c2cc3nc(NCc4cccc(Cl)c4)ccn3n2)cc(OC)c1OC,"inconclusive [activator, single point]",
c1ccc(Cc2ccc(OCCn3cncn3)cc2)cc1,,inactive: 20.9%
CS(=O)(=O)N(CC(=O)N1CCN(c2ccc(F)cc2)CC1)c1cccc(Cl)c1,"inconclusive [activator, partial curve, poor fit]",
Cc1ccc(/C=N/n2c(C3CCCCC3)n[nH]c2=S)o1,"inconclusive [activator, single point]",
CCOc1ccc(N(CC(=O)Nc2cc(Cl)ccc2C)S(C)(=O)=O)cc1,"inconclusive [activator, single point]",
CC(=O)N1N=C(c2cccc([N+](=O)[O-])c2)OC1(C)CC(=O)Nc1ccccc1 (stereo not drawn),"inconclusive [activator, partial curve]",
O=C(Nc1ccc(N2CCOCC2)c(Cl)c1)c1c(F)c(F)c(F)c(F)c1F,"inconclusive [activator, partial curve, poor fit]",
O[C@H]1c2ccccc2[C@H](Cc2cncs2)[C@@H]1Br,"inconclusive [activator, single point]",
FC(F)(F)c1cc(-c2ccco2)nc(NCc2ccccc2)n1,"inconclusive [activator, single point]",
Cc1[nH]c2ccccc2c1SCCNC(=O)c1ccc(F)cc1,"inconclusive [activator, single point]",
COc1ccc(-c2cn3c(n2)sc2cc(C(=O)NC4CCCCC4)ccc23)cc1,,inactive: 11.2%
Cc1ccnc(NC(c2cc(C)ccc2O)c2ccc3cccnc3c2O)c1 (stereo not drawn),"inconclusive [activator, single point]",
CCN1CCN(c2nc(Nc3ccc(NC(C)=O)cc3)nc(Nc3ccc(NC(C)=O)cc3)n2)CC1,"inconclusive [activator, single point]",
CCN(CC)S(=O)(=O)c1cccc(C(=O)Nc2ccccc2C(=O)N2CCOCC2)c1,"inconclusive [activator, single point]",
CCCCN(C)C(=O)c1nc2ccccn2c1CNC1CCC1,"inconclusive [activator, single point]",
COc1cccc(NC(=O)COc2ccc(C)cc2)c1,"inconclusive [activator, single point]",
CCCCC1C2C(=O)N(c3ccc(C)cc3)C(=O)C2ON1c1ccccc1 (stereo not drawn),"inconclusive [activator, single point]",
CCOc1ccc(C2NC(=S)NC3=C2CCc2ccccc23)cc1 (stereo not drawn),"inconclusive [activator, partial curve]",
CCc1noc(C)c1C(=O)Nc1nc2c(C)cccc2s1,"inconclusive [activator, partial curve, poor fit]",

SMILES,Potency,growth rescue
Cc1ccc(NC(=O)COC(=O)C2CCN(c3ccc(C(F)(F)F)cn3)CC2)cc1,"inconclusive [activator, partial curve, poor fit]",
Cc1cccc(NCc2nc(-c3ccccc3)no2)c1,"inconclusive [activator, single point]",
COc1ccc(-c2noc(-c3cc(C(C)C)[nH]n3)n2)cc1,"inconclusive [activator, single point]",
O=C1CC(C(=O)N2CCN(Cc3ccccc3)CC2)CN1Cc1ccccc1 (stereo not drawn),,inactive: -6.61%
O=C(CCN1CCN(CCO)CC1)Nc1ccc(F)c(F)c1,,inactive: 9.78%
CCCN1C(C(=O)c2ccccc2)=C(OC(=O)C(C)(C)C)c2ccccc2S1(=O)=O,"inconclusive [activator, full curve]",
S=C1NCN(Cc2ccco2)CN1c1cccc2ccccc12,"inconclusive [activator, single point]",
O=[N+]([O-])c1ccc(NN=Cc2ccc(O)cc2O)nc1,,inactive: -9.07%
CC(NS(=O)(=O)c1ccc(Br)cc1)c1ccccc1 (stereo not drawn),"inconclusive [activator, single point]",
O=C(NCc1ccc2c(c1)OCO2)c1cccnc1,"inconclusive [activator, single point]",
C#CCn1c(=NC(=O)CSC(C)=O)sc2cc(F)ccc21,"inconclusive [activator, full curve, poor fit]",
CN1CCN(/N=C/c2ccc(OCc3ccccc3)cc2)CC1,"inconclusive [activator, partial curve, poor fit]",
CCOc1ccccc1CNC(=O)C1CCN(Cc2cc3ccccc3n2Cc2ccccc2)CC1,,inactive: -14.1%
Cc1nn(Cc2cccc(C(=O)NC(C)c3ccc(C(C)(C)C)cc3)c2)c(C)c1[N+](=O)[O-] (stereo not drawn),"inconclusive [activator, full curve]",
COC(=O)c1cc(S(=O)(=O)N2c3ccccc3CC2C)cn1C (stereo not drawn),"inconclusive [activator, single point]",
O=C(/C=C/c1cccc(F)c1)OCC(=O)N1CCCC1,"inconclusive [activator, single point]",
CC(C)N(C)CCOC(=O)c1ccc2c(c1)OCCO2,"inconclusive [activator, partial curve, poor fit]",
O=C(c1cccs1)N1CCCc2cc(NS(=O)(=O)c3ccc(F)cc3)ccc21,,inactive: -16.3%
Cc1ccccc1N=C1SC(CC(=O)Nc2ccc3ccccc3c2)C(=O)N1Cc1ccccn1 (stereo not drawn),,inactive: 29.1%
c1ccc(-c2noc(CN3CCN(c4ccccc4)CC3)n2)cc1,"inconclusive [activator, single point]",
C/C(=N/NS(=O)(=O)c1ccc(C)cc1C)c1ccc2c(c1)OCO2,"inconclusive [activator, full curve]",
CCc1nc2ccc(C(=O)N3CCN(c4ccc(Cl)cc4)CC3)cc2nc1CC,"inconclusive [activator, single point]",
Cc1ccc(Cl)cc1N1CCN(C(=O)c2ccc(C)c(-n3c(C)nc4cccnc43)c2)CC1,,inactive: 6.49%

SMILES,Potency,growth rescue
Cc1ccc(C2C3=C(CC(C)(C)CC3=O)N(CCN3CCOCC3)C3=C2C(=O)CC(C)(C)C3)cc1,"inconclusive [activator, single point]",
Cc1cc(/C=N/NC(N)=S)c(C)n1-c1ccc(Cl)c(Cl)c1,"inconclusive [activator, full curve, poor fit]",
CC1C(=O)C(C)C(c2cc(Br)ccc2O)NC1c1cc(Br)ccc1O (stereo not drawn),"inconclusive [activator, single point]",
CCCC(=O)N1CCN(c2ccc(NC(=S)NC(=O)c3cccc(C)c3)cc2)CC1,"inconclusive [activator, partial curve, poor fit]",
C=CCNC(=O)C(=O)Nc1ccc2c(c1)N(S(=O)(=O)c1cccs1)CCC2,,inactive: 1.5%
CC(C)N=C(NS(=O)(=O)c1ccccc1)C(Cl)(Cl)Cl,"inconclusive [activator, partial curve, poor fit]",
COc1cccc(NC(=S)N/N=C2/CCCCc3ccccc32)c1,"inconclusive [activator, partial curve, poor fit]",
COc1cccc(OCc2nc3ccccc3n2CCOc2cccc(C)c2)c1,"inconclusive [activator, partial curve, poor fit]",
CCc1cc2c(CN3CCN(CCO)CC3)cc(=O)oc2cc1O,,inactive: -10.4%
Cc1ccc(NC(=O)C2CCCN2S(=O)(=O)c2cccc3cccnc23)cc1C (stereo not drawn),,inactive: -6.75%
N#Cc1ccccc1OCC(=O)Nc1ccc2c(c1)OCCO2,,inactive: -5.88%
COc1ccc(CC(=O)N2CCN=C2SCc2ccc([N+](=O)[O-])cc2)cc1,,inactive: 12.7%
CC1(C#CC[N+]2(C)CCCCC2)CCC2C(O1)c1ccccc1OC2(C)C (stereo not drawn),"inconclusive [activator, single point]",
CC1(C(=O)Nc2nc3ccccc3s2)CC1(Br)Br (stereo not drawn),"inconclusive [activator, partial curve, poor fit]",
CC(Cc1ccccc1)=NNS(=O)(=O)c1ccc([N+](=O)[O-])cc1,"inconclusive [activator, full curve]",
CCn1c(C(=O)NC2CCC(C)CC2)cc2sccc21 (stereo not drawn),,inactive: -7.99%
Oc1ccc(Nc2nc(-c3ccccc3)nc3ccccc23)cc1,,inactive: -12%
CC(C(=O)Nc1cccc([N+](=O)[O-])c1)n1nnc2ccccc21 (stereo not drawn),"inconclusive [activator, partial curve, poor fit]",
Cn1cc(-c2cccc(Cl)c2)cc(C#N)c1=O,,inactive: -11.2%
COc1ccc(NC(=O)Cn2c(SCc3ccc(C)cc3)nc3cccnc32)c(OC)c1,,inactive: -12.5%
C[C@@]12CC(=O)NC1N(C(=O)c1cccc(C(F)(F)F)c1)C(c1ccccc1OC(=O)c1cccc(C(F)(F)F)c1)C2 (stereo partly drawn),"inconclusive [activator, partial curve]",
CCCCNC(=O)c1nc(C2CCN(S(=O)(=O)c3ccc(OC(F)(F)F)cc3)CC2)oc1-c1ccccc1,,inactive: -18.3%
